Source: patent US7592316B2, “Peptides as NS3-serine protease inhibitors of hepatitis C virus” (Schering Corporation, priority 2000, dated 2009)

biological target: HCV NS3/NS4A protease (strain 1a) (Hepatitis C virus genotype 1a, UniProt P27958); test: biochemical; settings: Compounds prepared by Solid Phase Synthesis, Table 3; read-out: Ki* CLASS

| SMILES | Ki [nM] |
| --- | --- |
| CCCC(NC(=O)[C@@H]1C[C@@H](OC(C)(C)C)CN1C(=O)[C@@H](NC(=O)OCC(C)C)C1CCCCC1)C(=O)C(=O)NCC(=O)NC(C(N)=O)c1cccc(Cl)c1 (some centres unmarked) (Isobutyloxycarbonyl-[Chg][Hyp](tBu)[X2]G[ξPhg(3-Cl)]-NH2) | 101 to 1000 |
| CCCC(NC(=O)[C@@H]1C[C@@H](OCc2ccccc2)CN1C(=O)C(NC(=O)OCC(C)C)C1CCCCC1)C(=O)C(=O)NCC(=O)NC(C(=O)O)c1ccccc1 (some centres unmarked) (Isobutyloxycarbonyl-[ξChg][Hyp](Bn)[X2]G[ξPhg]-OH) | 1 to 100 |
| CCCC(NC(=O)[C@@H]1C[C@@H](OCC(=O)OC(C)(C)C)CN1C(=O)C(NC(=O)OCC(C)C)C1CCCCC1)C(=O)C(=O)NCC(=O)NC(C(N)=O)c1ccccc1 (some centres unmarked) (Isobutyloxycarbonyl-[ξChg][Hyp](CH2CO2tBu)[X2]G[ξPhg]-NH2) | 1 to 100 |
| CCCCC(NC(=O)CNC(=O)C(=O)C(CCC)NC(=O)[C@@H]1C[C@@H](OCC(=O)OC(C)(C)C)CN1C(=O)C(NC(=O)Cc1ccc(F)cc1)C1CCCCC1)C(N)=O (some centres unmarked) ({Phenylacetyl(4-F)}-[ξChg][Hyp](CH2CO2tBu)[X2]G[ξNle]-NH2) | > 1000 |
| CCCC(NC(=O)[C@@H]1C[C@@H](OCc2ccccc2)CN1C(=O)C(NC(=O)C(C)C(C)C(=O)O)C1CCCCC1)C(=O)C(=O)NCC(=O)NC(C(=O)O)c1ccccc1 (some centres unmarked) (X30-[ξChg][Hyp](Bn)[X2]G[ξPhg]-OH) | 101 to 1000 |
| CCCC(NC(=O)[C@@H]1C[C@@H](OC(C)(C)C)CN1C(=O)[C@@H](NC(=O)c1ccccc1C(C)=O)C1CCCCC1)C(=O)C(=O)NCC(=O)N[C@H](C(N)=O)c1ccccc1 (some centres unmarked) (X24-[Chg][Hyp](tBu)[X2]G[Phg]-NH2) | > 1000 |

same assay, conditions: HCV protease continuous assay results, Table 1; read-out: Ki* Range

| Ki [nM] | SMILES |
| --- | --- |
| 101 to 1000 | CCCC(NC(=O)[C@@H]1CC2(CN1C(=O)C(NC(=O)OC(C)(C)C)C(C)(C)C)SCCCS2)C(=O)C(=O)NCC(=O)NC(CO)c1ccccc1 (some centres unmarked) [Example 254] |
| 1 to 100 | CCCC(NC(=O)[C@@H]1CC2(CN1C(=O)C(NC(=O)OC(C)(C)C)C(C)(C)C)SCCCS2)C(=O)C(=O)NCC(=O)NC(CO)c1cccs1 (some centres unmarked) [Example 247] |
| > 1000 | CC[C@@H](C)C(NC(=O)[C@@H]1C[C@@H](OC(C)(C)C)CN1C(=O)C(NC(=O)OCC(C)C)C(C)(C)C)C(=O)C(=O)NCC(=O)N[C@@H](c1ccccc1)[C@H](C)O (some centres unmarked) [Example 345] |
| > 1000 | COC(=O)CNC(=O)C(=O)C1(NC(=O)[C@@H]2C[C@@H](OC(C)(C)C)CN2C(=O)[C@@H](NC(=O)OCC(C)C)C(C)(C)C)CCCCC1 [Example 232] |

| SMILES | Ki [nM] |
| --- | --- |
| CCCC(NC(=O)[C@@H]1CC2(CN1C(=O)C(NC(=O)OCC(C)C)C1CCCCC1)SCCS2)C(=O)C(=O)NCC(=O)NC(C(=O)N(C)C)c1ccccc1 (some centres unmarked) [Example 100] (Isobutyloxycarbonyl-[ξChg][Pro(4,4-SCH2CH2S)][X2]G[ξPhg]-NMe2) | 1 to 100 |
| CCCC(NC(=O)[C@@H]1CC2(CN1C(=O)[C@@H](NC(=O)[C@@H](O)c1ccccc1)C(C)(C)C)SCCCS2)C(=O)C(=O)NCC(=O)NC(C(=O)N(C)C)c1ccccc1 (some centres unmarked) [Example 210] (X3-[Tle][Pro(4,4-S(CH2)3S)][X2]G[ξPhg]-NMe2) | 1 to 100 |

same assay, conditions: Ki* Range, HCV protease continuous assay results, Table 1

| SMILES | Ki [nM] |
| --- | --- |
| CCCCC(NC(=O)[C@@H]1C[C@@H](OC(C)(C)C)CN1C(=O)[C@@H](NC(=O)OCC(C)C)C(C)(C)C)C(=O)C(=O)NCC(=O)N[C@H](COP(=O)(Oc1ccccc1)Oc1ccccc1)c1ccccc1 (some centres unmarked) [Example 297] | > 1000 |

same assay, conditions: Table 5; HCV NS3/NS4A protease, 30° C., pH 6.5; read-out: Ki* Range

| Ki [nM] | SMILES |
| --- | --- |
| 1 to 100 | CNC(=O)C(=O)C(CC1CC1)NC(=O)[C@@H]1[C@@H]2[C@H](CN1C(=O)[C@@H](NC(=O)OCC(C)C)C1Cc3ccccc3C1)C2(C)C (some centres unmarked) |
| > 1000 | C=CCNC(=O)C(=O)C(CCC)NC(=O)[C@@H]1CC(OC(C)(C)C)CN1C(=O)C(NC(=O)OC(C)(C)C)c1cccc2ccccc12 (some centres unmarked) |

same assay, conditions: Table 5; HCV NS3/NS4A protease, spectrophotometric assay, 30° C., pH 6.5; read-out: Ki* Range

| Ki [nM] | SMILES |
| --- | --- |
| 1 to 100 | CCCC(NC(=O)[C@@H]1C2C(CN1C(=O)[C@@H](NC(=O)OC(C)(C)C)C1CCCCC1)C2(Br)Br)C(=O)C(=O)NCC(=O)N[C@H](C(=O)N(C)C)c1ccccc1 (some centres unmarked) |
| 1 to 100 | CCCC(NC(=O)C1[C@H]2[C@@H](CN1C(=O)C(NC(=O)OC(C)(C)C)C1CCC(F)(F)CC1)C2(C)C)C(=O)C(=O)NCC(=O)N[C@H](C(=O)N(C)C)c1ccccc1 (some centres unmarked) |
| 1 to 100 | CC(C)(C)OC(=O)N[C@H](C(=O)N1CC2C([C@H]1C(=O)NC(CC1CCC1)C(=O)C(N)=O)C2(C)C)C1CCCCC1 (some centres unmarked) |
| > 1000 | CC(=O)O[C@H](C(=O)N1CC2C([C@H]1C(=O)NC(CC1CC1)C(=O)C(=O)NCC(=O)N[C@H](C(=O)N(C)C)c1ccccc1)C2(C)C)C(C)(C)C (some centres unmarked) |
| 1 to 100 | CN(C)C(=O)C(NC(=O)CNC(=O)C(=O)C(CC1CC1)NC(=O)[C@@H]1C2C(CN1C(=O)C(NC(=O)OC(C)(C)C)C1CCCCC1)C2(Cl)Cl)c1ccccc1 (some centres unmarked) |

| SMILES | Ki [nM] |
| --- | --- |
| CCCC(NC(=O)[C@@H]1CC(C)(C)CN1C(=O)[C@@H](NC(=O)OC(C)(C)C)C(C)(C)C)C(=O)C(=O)NCC(=O)N[C@H](C(=O)N(C)C)c1ccccc1 (some centres unmarked) [drawing 1554] (Boc-[Tle][Pro(4,4-Me2)][X2]G[Phg]-NMe2) | 1 to 100 |
| C=CCCC(NC(=O)[C@@H]1[C@@H]2[C@H](CN1C(=O)[C@@H](NC(=O)[C@@H](NC(=O)OC(C)(C)C)C1CCN(C(=O)OCc3ccccc3)CC1)C1CCCCC1)C2(C)C)C(=O)C(=O)NCC=C (some centres unmarked) | 101 to 1000 |
| CCCCC(NC(=O)[C@@H]1[C@H]2[C@@H](CN1C(=O)[C@@H](NC(=O)OC(C)C)C(C)(C)C)C2(C)C)C(=O)C(=O)NCC(=O)N[C@H](C(=O)N(C)C)c1ccccc1 (stereo partly drawn) (Isopropoxycarbonyl-[Tle][Pro(3S,4R-CMe2)][X4]G[Phg]-NMe2) | 1 to 100 |

*1 amine or outer side, *2 acyl side, *3 side chain or, on linkers, in order; H or OH if unused. Where a SMILES comes first, the peptide text is derived from it. [ ]: non-standard residue; d: D form. The star is where a group is joined. ξ: configuration not given here. Pro(3S,4R-CMe2) = CC1(C)[C@H]2[C@@H](C(=O)O)NC[C@H]21; Pro(4,4-S(CH2)3S) = O=C(O)[C@@H]1CC2(CN1)SCCCS2; Pro(4,4-SCH2CH2S) = O=C(O)[C@@H]1CC2(CN1)SCCS2; Phenylacetyl(4-F) = O=C(Cc1ccc(F)cc1)*; Pro(4,4-Me2) = CC1(C)CN[C@H](C(=O)O)C1; Isobutyloxycarbonyl = CC(C)COC(=O)*; ξPhg(3-Cl) = NC(C(=O)O)c1cccc(Cl)c1; Isopropoxycarbonyl = CC(C)OC(=O)*; X4 = CCCCC(N[*:1])C(=O)C(=O)[*:2]; Hyp = O=C(O)[C@@H]1C[C@@H](O)CN1; X2 = CCCC(N[*:1])C(=O)C(=O)[*:2]; CH2CO2tBu = CC(C)(C)OC(=O)C*; Chg = N[C@H](C(=O)O)C1CCCCC1; Phg = N[C@H](C(=O)O)c1ccccc1; Tle = CC(C)(C)[C@H](N)C(=O)O; X3 = O=C([C@@H](O)c1ccccc1)*; X24 = CC(=O)c1ccccc1C(=O)*; X30 = CC(C(=O)O)C(C)C(=O)*; ξChg = NC(C(=O)O)C1CCCCC1; ξPhg = NC(C(=O)O)c1ccccc1; Boc = CC(C)(C)OC(=O)*; ξNle = CCCCC(N)C(=O)O; Bn = c1ccc(C*)cc1; tBu = CC(C)(C)*
